Positions count from the first letter of the chain named. The list shows a part of the results.
T1: RBFOX1 RRM RbFoxmut (Fox-RRM*) (Homo sapiens, UniProt Q9NWB1 109-208, R118D;E147R;N151S;E152T)
T1 sequence: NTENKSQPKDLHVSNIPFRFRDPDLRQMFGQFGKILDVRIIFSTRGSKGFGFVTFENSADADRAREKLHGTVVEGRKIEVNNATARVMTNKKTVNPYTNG

B1: CGCGUGC (DNA:RNA)
RNA: GGGAGACCGGAAUUCAGAUUGUCCCGCGUGCUUAAAUCCCGUCGUAGCCACCA
DNA 1: CAATCTGAATTCCGGTCTCCC
DNA 2: TGGTGGCTACGACGGGATT
B2: UCAGAAG (DNA:RNA)
RNA: B1 RNA with C25U, G26C, C27A, U29A, G30A, C31G
DNA 1: CAATCTGAATTCCGGTCTCCC
DNA 2: TGGTGGCTACGACGGGATT
B3: UUGCGAG (DNA:RNA)
RNA: GGGAGACCGGAAUUCAGAUUGUCCUUGCGAGUUAAAUCCCGUCGUAGCCACCA
DNA 1: CAATCTGAATTCCGGTCTCCC
DNA 2: TGGTGGCTACGACGGGATT
B4: AAUAAUU (DNA:RNA)
RNA: GGGAGACCGGAAUUCAGAUUGUCCAAUAAUUUUAAAUCCCGUCGUAGCCACCA
DNA 1: CAATCTGAATTCCGGTCTCCC
DNA 2: TGGTGGCTACGACGGGATT
B5: CCUGAAU (DNA:RNA)
RNA: B4 RNA with A25C, A26C, A28G, U30A
DNA 1: CAATCTGAATTCCGGTCTCCC
DNA 2: TGGTGGCTACGACGGGATT
B6: AAUGCUU (DNA:RNA)
RNA: B4 RNA with A28G, A29C
DNA 1: CAATCTGAATTCCGGTCTCCC
DNA 2: TGGTGGCTACGACGGGATT
B7: AUAGAGA (DNA:RNA)
RNA: B4 RNA with A26U, U27A, A28G, U30G, U31A
DNA 1: CAATCTGAATTCCGGTCTCCC
DNA 2: TGGTGGCTACGACGGGATT
B8: AGGACGA (DNA:RNA)
RNA: B4 RNA with A26G, U27G, A29C, U30G, U31A
DNA 1: CAATCTGAATTCCGGTCTCCC
DNA 2: TGGTGGCTACGACGGGATT
B9: GCUCUCU (DNA:RNA)
RNA: B4 RNA with A25G, A26C, A28C, A29U, U30C
DNA 1: CAATCTGAATTCCGGTCTCCC
DNA 2: TGGTGGCTACGACGGGATT
B10: CCGCAUU (DNA:RNA)
RNA: B4 RNA with A25C, A26C, U27G, A28C
DNA 1: CAATCTGAATTCCGGTCTCCC
DNA 2: TGGTGGCTACGACGGGATT
B11: CCGGAUG (DNA:RNA)
RNA: B4 RNA with A25C, A26C, U27G, A28G, U31G
DNA 1: CAATCTGAATTCCGGTCTCCC
DNA 2: TGGTGGCTACGACGGGATT
B12: UCCUAUU (DNA:RNA)
RNA: B4 RNA with A25U, A26C, U27C, A28U
DNA 1: CAATCTGAATTCCGGTCTCCC
DNA 2: TGGTGGCTACGACGGGATT
B13: UCAAGCC (DNA:RNA)
RNA: B3 RNA with U26C, G27A, C28A, A30C, G31C
DNA 1: CAATCTGAATTCCGGTCTCCC
DNA 2: TGGTGGCTACGACGGGATT
B14: GUGUUAG (DNA:RNA)
RNA: B3 RNA with U25G, C28U, G29U
DNA 1: CAATCTGAATTCCGGTCTCCC
DNA 2: TGGTGGCTACGACGGGATT
B15: GCUCAAG (DNA:RNA)
RNA: B3 RNA with U25G, U26C, G27U, G29A
DNA 1: CAATCTGAATTCCGGTCTCCC
DNA 2: TGGTGGCTACGACGGGATT
B16: AACGCUG (DNA:RNA)
RNA: B4 RNA with U27C, A28G, A29C, U31G
DNA 1: CAATCTGAATTCCGGTCTCCC
DNA 2: TGGTGGCTACGACGGGATT
B17: AUAGCUC (DNA:RNA)
RNA: B4 RNA with A26U, U27A, A28G, A29C, U31C
DNA 1: CAATCTGAATTCCGGTCTCCC
DNA 2: TGGTGGCTACGACGGGATT
B18: CUAGUCU (DNA:RNA)
RNA: B1 RNA with G26U, C27A, G30C, C31U
DNA 1: CAATCTGAATTCCGGTCTCCC
DNA 2: TGGTGGCTACGACGGGATT
B19: ACCUCUC (DNA:RNA)
RNA: B4 RNA with A26C, U27C, A28U, A29C, U31C
DNA 1: CAATCTGAATTCCGGTCTCCC
DNA 2: TGGTGGCTACGACGGGATT
B20: ACUGCAC (DNA:RNA)
RNA: B4 RNA with A26C, A28G, A29C, U30A, U31C
DNA 1: CAATCTGAATTCCGGTCTCCC
DNA 2: TGGTGGCTACGACGGGATT
B21: GCGACGA (DNA:RNA)
RNA: B4 RNA with A25G, A26C, U27G, A29C, U30G, U31A
DNA 1: CAATCTGAATTCCGGTCTCCC
DNA 2: TGGTGGCTACGACGGGATT
B22: AAGCCGU (DNA:RNA)
RNA: B4 RNA with U27G, A28C, A29C, U30G
DNA 1: CAATCTGAATTCCGGTCTCCC
DNA 2: TGGTGGCTACGACGGGATT
B23: CGCUACU (DNA:RNA)
RNA: B1 RNA with G28U, U29A, G30C, C31U
DNA 1: CAATCTGAATTCCGGTCTCCC
DNA 2: TGGTGGCTACGACGGGATT
B24: AUAUCGA (DNA:RNA)
RNA: B4 RNA with A26U, U27A, A28U, A29C, U30G, U31A
DNA 1: CAATCTGAATTCCGGTCTCCC
DNA 2: TGGTGGCTACGACGGGATT
B25: GUGGGUA (DNA:RNA)
RNA: B3 RNA with U25G, C28G, A30U, G31A
DNA 1: CAATCTGAATTCCGGTCTCCC
DNA 2: TGGTGGCTACGACGGGATT
B26: AAUGUAC (DNA:RNA)
RNA: B4 RNA with A28G, A29U, U30A, U31C
DNA 1: CAATCTGAATTCCGGTCTCCC
DNA 2: TGGTGGCTACGACGGGATT
B27: UUACUAC (DNA:RNA)
RNA: B3 RNA with G27A, G29U, G31C
DNA 1: CAATCTGAATTCCGGTCTCCC
DNA 2: TGGTGGCTACGACGGGATT
B28: UCGAGCG (DNA:RNA)
RNA: B3 RNA with U26C, C28A, A30C
DNA 1: CAATCTGAATTCCGGTCTCCC
DNA 2: TGGTGGCTACGACGGGATT
B29: AAAGGUA (DNA:RNA)
RNA: B4 RNA with U27A, A28G, A29G, U31A
DNA 1: CAATCTGAATTCCGGTCTCCC
DNA 2: TGGTGGCTACGACGGGATT
B30: CGCUAAG (DNA:RNA)
RNA: B1 RNA with G28U, U29A, G30A, C31G
DNA 1: CAATCTGAATTCCGGTCTCCC
DNA 2: TGGTGGCTACGACGGGATT
B31: CAUGAAC (DNA:RNA)
RNA: B4 RNA with A25C, A28G, U30A, U31C
DNA 1: CAATCTGAATTCCGGTCTCCC
DNA 2: TGGTGGCTACGACGGGATT

The binders below were run against T1, RBFOX1 RRM RbFoxmut (Fox-RRM*) (assay: EMSA; HiTS-Eq, 1 nM pool, 10 min; buffer printed only for the single-RNA assays: 10 mM Tris pH 7.5, 150 mM NaCl, 3.4 mM EDTA, 0.001% NP-40, 30 C). Settings: tags: His6 N-terminal (pET28a); label: 5' 32P.
How it was run: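 Purified RbFox RRM, wild type or mutant, was incubated for 10 min in 50 µL with 1 nM of a 5′-radiolabelled RNA pool carrying 7 randomized nucleotides, whose flanks were annealed to DNA oligonucleotides, over a series of increasing protein concentrations. Unbound RNA was resolved on 8% native PAGE, cut out, reverse-transcribed, barcoded by PCR and sequenced on an Illumina HiSeq 2500. Relative association constants were derived from changes in read counts for each RNA species versus the control reaction and normalised to the cognate motif.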

Binder	binding signal
B1	0.124 KA relative to UGCAUGU
B2	0.106 KA relative to UGCAUGU
B3	0.15 KA relative to UGCAUGU
B4	0.0519 KA relative to UGCAUGU
B5	0.0593 KA relative to UGCAUGU
B6	0.105 KA relative to UGCAUGU
B7	0.0967 KA relative to UGCAUGU
B8	0.0606 KA relative to UGCAUGU
B9	0.0785 KA relative to UGCAUGU
B10	0.106 KA relative to UGCAUGU
B11	0.218 KA relative to UGCAUGU
B12	0.101 KA relative to UGCAUGU
B13	0.0868 KA relative to UGCAUGU
B14	0.14 KA relative to UGCAUGU
B15	0.105 KA relative to UGCAUGU
B16	0.0713 KA relative to UGCAUGU

Binder	binding signal
B17	0.0915 KA relative to UGCAUGU
B18	0.059 KA relative to UGCAUGU
B19	0.0427 KA relative to UGCAUGU
B20	0.106 KA relative to UGCAUGU
B21	0.0697 KA relative to UGCAUGU
B22	0.126 KA relative to UGCAUGU
B23	0.0995 KA relative to UGCAUGU
B24	0.0981 KA relative to UGCAUGU
B25	0.212 KA relative to UGCAUGU
B26	0.133 KA relative to UGCAUGU
B27	0.0898 KA relative to UGCAUGU
B28	0.155 KA relative to UGCAUGU
B29	0.104 KA relative to UGCAUGU
B30	0.114 KA relative to UGCAUGU
B31	0.126 KA relative to UGCAUGU

From PMC9911399, “Two distinct binding modes provide the RNA-binding protein RbFox with extraordinary sequence specificity”
